The target in assay [1] is T1, human IGF-1 (human, UniProt P05019 part only).
T1 construct: also called hIGF-1; hIGF-I
The experiment in a line: SPR (Biacore 3000), multi-cycle, ligand titrated over amine-coupled Trap, 1:1 kinetic model, n=4.

For assay [2], the target named is T2, human insulin (human, UniProt P01308 part only; P01308 part only).
T2 construct: also called h-insulin
The experiment in a line: SPR (Biacore 3000), multi-cycle, insulin titrated over amine-coupled Trap, steady-state affinity model, n=4.

In assay [3] the target is T3, mouse IGF-1 (mouse, UniProt P05017 part only).
T3 construct: also called mIGF-1; mIGF-I
In words: SPR, 5-point multi-cycle, ligand over amine-coupled Trap, 1:1 Kinetic model, n=2. In general terms: In SPR one partner is held on a chip, and binding of the other changes the refractive index at the surface.

For assay [4], the target named is T2, human insulin. The description is as above.
The target in assay [5] is T1, human IGF-1. The experiment in a line: SPR, 10-point multi-cycle, ligand over amine-coupled Trap, 1:1 Kinetic model, n=2.
Assay [6] has as its target T4, human IGF-2 (human, UniProt P01344 part only).
T4 construct: also called hIGF-2; hIGF-II
The assay is described as above.

The target in assay [7] is T1, human IGF-1. In words: SPR, 5-point single-cycle, ligand over amine-coupled Trap, 1:1 Titration model, n=2.
Assay [8] concerns the target T3, mouse IGF-1. The assay is described as above.
The target in assay [9] is T4, human IGF-2. The assay is described as above.
Assay [10] concerns the target T2, human insulin. Described as above.

Data on two molecules can be found in patent publication US20150044209A1 (ROYAL INSTITUTION FOR THE ADVANCEMENT OF LEARNING MCGILL …, published 2015).

By Kd is commonly meant the constant that tells how readily two partners part at equilibrium. Read a low Kd as a tighter complex.

T1 sequence (P05019 49-118 limits assumed): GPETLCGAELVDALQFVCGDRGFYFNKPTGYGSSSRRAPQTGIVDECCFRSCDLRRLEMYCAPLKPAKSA
T2 sequence (P01308 25-54 limits assumed, chain 1 of 2): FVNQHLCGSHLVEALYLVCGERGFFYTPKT
T2 sequence (P01308 90-110 limits assumed, chain 2 of 2): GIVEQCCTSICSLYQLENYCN
T4 sequence (P01344 25-91 limits assumed): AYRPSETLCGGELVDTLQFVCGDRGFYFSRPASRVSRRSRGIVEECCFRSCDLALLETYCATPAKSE
T3 sequence (P05017 49-118 limits assumed): as the sequence (P05019 49-118 limits assumed) above, with D20P, S35I, A67T, S69A counted along it

B1: Trap E: h-sIGF1R-Fc, purified from CHO cells by CHT and GF (Fc fusion)
chain: not shown
notes: Trap E is said to be contaminated by high molecular weight species; also called E (control); Fc-sIGF1R
In the case of B1, the dissociation constant Kd was 6 nM in the assay with human IGF-1 [1] and 14 µM in the assay with human insulin [2].

B2: Trap H: h-sIGF1R-Fc, purified from CHO cells using protein A, pH 4.0 elution, endotoxin-free (Fc fusion)
chain: not shown
notes: also called Trap H (parent protein); IGF-Trap H
Regarding B2, the Kd in the assay with mouse IGF-1 [3] came out at 74 nM; in the assay with human insulin [4], 5.05 µM; with human IGF-1 [5], 5.7 nM; with human IGF-2 [6], 32 nM; in the assay with human IGF-1 [7], 11 nM; with mouse IGF-1 [8], 540 nM. Moreover, the values for the Kd with human IGF-2 [9] and in the assay with human insulin [10] were 98 nM and 15.4 µM, respectively.
